The supplement of paper PMC12632987
Over roughly 2,300 sequences, “median log2 fold change of GCK-ALFA target abundance (FLAG IP / Myc IP barcode read proportion)” has its median near 0.095; the lowest 2% begin near -0.47. The list shows a part of the results.

B1: LC3A_3_1681 (protein)
chain: MDELVKEVLEEAKKNGLSEEALEALKELLEELKKRGFLNAIKTLLEKLKELKDIPSEILKDMFEDLLYLLKNEDLSEEEIVEKIKEEARIAKSEKEIIEL
B2: LC3A_28_1157 (protein)
chain: SKIEEEIARAKAELDAAIAAGEDAVITIKVTGDATEEDIEKLIKALEELAAKGEKHGVTAIIIDVDSKVKQEHIDKLADAAEEIEKKYPNITIIIALSDE
B3: LC3A_28_898 (protein)
chain: MSALESAEAALAAVRAAVAAGDQAPLVLEVKAPSTEEDTEKLIELLEEIAREASQLTGVTIVIDIDESVSEENQQKLIDKAEELEKKYPNVTVIIALPES
B4: LC3A_28_869 (protein)
chain: SAIEEAVKAAREELEKQAAQGEDGVVTVKVTKETSLEEAKELLERVAKVAKEVAEKTGLKVTIVIDDDRDQESADELADLAEKLEKEDPKITVIIALSEE
B5: LC3A_132_298 (protein)
chain: DEEKAKEILEKVKEKVEEAKENIDNEEKVEELLEEIEELIKEAEEKLSPELLAKVMEEVAELLDELSQKFLEAGKEHLAMLADGLAIEAESLALRAEKEI
B6: LC3A_3_1372 (protein)
chain: MEEEIEETLEYLREKGHSEETIEAVREALEALKEAGYEEALKTFIELMKRLAHLPDELLLWFAEDVLRAVTEEDLSEEELIEFIKREARIAESEAEIIEL
B7: LC3A_13_349 (protein)
chain: SVTITAETAEELLKKGTAALDANPGQTINITVTVRDEAEADAVAEAIKELIDKAIEKGNSLNVTIKGKRDLVLYAAVEVGAHIAEILGKADVNVSTEEVE
B8: LC3A_132_277 (protein)
chain: DEEKKKRAIEKVRELARKAKEAIDDPEKVKELLEEMRKYLKEVEKTESPEVAAAVAEEAERELDELARALEEAGLEDLALEADSLAIEAASLAIRAEKKI
B9: LC3A_28_863 (protein)
chain: SETRESIERARKELEEARAAGEPRVITVRVTEDVTEEEVDEVIALIDEVAAASKEVPGLALVIDVDGKVDPEKLQRIMDAAEAAEAANPGLTVIFALDEE
B10: LC3A_147_480 (protein)
chain: AEVDIDVLVKNEETADKLIAMAEELKKELEAKGIEVEVEIKREKLDPNTWYVEIRFKIKAPTEEEEKAAAQEIVDRFDEFIEENKDEVLASIISVEFIER
B11: LC3A_132_276 (protein)
chain: EEEKTKEAIKKVEELAEEAKKNIDDEEKVKELLEEIEEFLKKVAETESPKVAAAVAEKAAEELDKLARELEKAGKEELALEADSLAIEAASLSLRAEKKL
B12: LC3A_free_46_2319 (protein)
chain: YKAEIDIDFFGVDEETAKALVEELEKKIKEIAKKYGLKVKIEVEVEKNEDGTYYVRVKITLEGEDKEKLEAAVNEIIDAADEIAEKYGASYVISYEIEEK
B13: LC3A_3_1635 (protein)
chain: MDEEVEETLELLREAGASEETLEAFRETAELLKERGYYEALKTLIEETRELLDLPSELLLSFFEEVLEYLKTNDANEEEVIEEIKRIATITRNEGEIIEL
B14: LC3A_45_1958 (protein)
chain: MYLATVDVLVPAEDFDAAAATLRAAVAEVSAEMGVDASIDPAALAAAREEAKATGEALLTVTVRADDKQTALDAAVRISDRLEEALGTRVASIISVEEIP
B15: LC3A_free_0_2117 (protein)
chain: KKTVVEVVIILDESVDEETAEEIYKELKEKAEELAKEKGGELKSSLSKSDGRYIITIEITLPTEDIDLALEVERELVEMAEEILKKHGVEATIYSSVYLE
B16: LC3A_28_1153 (protein)
chain: SAGVEAAKAQIEKDAEKDKNEEEVYLNVTITSTMTVEEAKEIMEHVEEVVEKLKDKKKIYVLVTFEEPVSQEVLDTVLEMAEEIEKKYPNVSVIIALPED
B17: LC3A_28_1199 (protein)
chain: SAADATIAAIKAQAAKALAEGDGTVITVNITSTMTQADIDAINATIKEEAAKLADVKSVSIVINVEAGVPQENITALAETGDEIEKKYPNITVIIALDED
B18: LC3A_free_39_2178 (protein)
chain: SEEELEKAKAELLKLAEEEGEETLKIVEEILKLLEGNLELVKLLVEGLKKIKEEGGDVKETVEEILEVIKELKAKGKSMEEILEKVKEIIEDHLNLIPLE
B19: LC3A_132_293 (protein)
chain: QEKKKEELLKEIKELIEKAKENIDDEELVRKYLEEIEELIKKAAEELTPEQLAELMKETAELLDELSRKFLEAGKEELAEEADGLRIEAESLALKAEEKL
B20: LC3A_13_334 (protein)
chain: TIKLEVETPEALRREAKAAIEAHPGETIEITVTVKTEEDVDAFAEALEEIIDLAIEKGNKLNITIKGKRDNVLELSLLVGAHIAERIDEADVTVSEEILP
B21: LC3A_59_2033 (protein)
chain: DEEIEKYVEKLREAKDDDEKMAEIILEALLKFKNDPEKLEKLKEAIIKTLVELGLLSEELAKELMEEAEKIVEEEKDYEEALKKILEELKIARNEEEIEE
B22: LC3A_147_520 (protein)
chain: ATYELTVSIDVLGDTELAKEEAEELAEELEELGFEVELEIEESVDEEGTPFVDITITAIAETEEELEKAKKLASEMAGEALDRIAAAGGAAIASISVEKL
B23: LC3A_28_1178 (protein)
chain: NHIKESSEKAIEEAKKAAKEKIPTVVTIEVPGNATQEDTELVKETIREIAEILKGIKGSAIIIDVESGVSQENLDLLMETAEEVEKKYPDISVIFALDEE
B24: LC3A_free_46_2428 (protein)
chain: YLVEVDIDLLHEDKEVLEKAVEEIKEKLKEIAEEYNAEIEIEVELSKLEDGSYFAEIKVKIKVPTKEIAEEVADDIIDSIDEIAEKYGVSYIISVEIKEE
B25: LC3A_28_1140 (protein)
chain: SALVEAAKAQIEADAEADKDEPEVLLRVTITSEMTVEQAREIMDHVEEVVEKLKDKEKIYIVVDATEPISQEVLDEIVERLEEIEKKYPNVSSIIALPED
B26: LC3A_132_304 (protein)
chain: EEKLAKELIKKAKEALKILKENPEEVEKVLKLLEEIKKLLEKLKKEVSPELAAKTFDEVMDILIELSRIAAKKGREEVAEEAFALAAEAAQLKSEAEKKI
B27: LC3A_3_1896 (protein)
chain: LEEELEETLKLLKEKGASEEVLKKFKEVVELLLERGYEEAAKTLIEEVKELADASDEILLWFLEEVLEVIENEDLDEEELIKRIKEIARTAKSEAEIEEL
B28: LC3A_3_1630 (protein)
chain: MEEKVEETLKELKEAGHSEETLEAFREVAELLMEKGYEKALETLIEEVRELKDLPSELLLAMLEEILETIKTEDLNEEELIKKIKEIARVAKNEGEIIEL
B29: LC3A_17_564 (protein)
chain: MEEIKKEIEELIKELKKLIKELEKYDPEAAKEVEKLLKKAEEALKEGKLKEAAKYLEKAFDLAADKFEELSEKYNGKFSNEEMLANGLELRAIGIIEKLE

The binders below were run against MAP1LC3A, Q9H492 (assay: median log2 fold change of GCK-ALFA target abundance (FLAG IP / Myc IP barcode read proportion) (log2 ratio); each designed protein is fused to an ALFA-tag nanobody in HEK293 cells to bring the named protein to FLAG-tagged glucokinase (GCK); Myc marks an untargeted standard; higher = target protein stabilised (more abundant)). Conditions: target protein: 3xFLAG-MCP-GCK-ALFA reporter; HEK293 landing pad (RPLP).
Method in brief: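 HEK293 landing-pad cells received a recombined binder library fused to the ALFA nanobody and were induced with 2 μg mL^−1 doxycycline, then transfected with a plasmid encoding a FLAG-tagged target and a Myc-tagged standard. Lysates were collected after 48 h for anti-FLAG and anti-Myc immunoprecipitation, and the circular RNA barcodes were reverse transcribed, amplified and sequenced. Target abundance for each binder is the median log2 ratio of FLAG to Myc barcode read proportions. Barcodes had to reach a proportion of at least 10^−7 in both replicates, each binder needed at least 3 barcodes per replicate, a pseudocount of 10^−6 was applied, and the two replicates were pooled.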
B1 was tested, and the “median log2 fold change” value was 0.312.
With B2 the “median log2 fold change” value was -0.0736.
With B3 the “median log2 fold change” value was 0.201.
In the case of B4, the “median log2 fold change” value is reported as -0.37.
For B5, the “median log2 fold change” value was -0.0134.
In the case of B6, the “median log2 fold change” value is reported as 0.0414.
With B7 the “median log2 fold change” value was 0.0758.
For B8, the “median log2 fold change” value was 0.167.
B9 was tested, and the “median log2 fold change” value was -0.0658.
In the case of B10, the “median log2 fold change” value is reported as 0.0243.
For B11, the “median log2 fold change” value was 0.0719.
With B12 the “median log2 fold change” value was 0.0759.
B13 was tested, and the “median log2 fold change” value was 0.106.
With B14 the “median log2 fold change” value was -0.0695.
With B15 the “median log2 fold change” value was -0.244.
With B16 the “median log2 fold change” value was -0.206.
In the case of B17, the “median log2 fold change” value is reported as 0.247.
With B18 the “median log2 fold change” value was 0.172.
In the case of B19, the “median log2 fold change” value is reported as 0.303.
For B20, the “median log2 fold change” value was 0.0285.
B21 was tested, and the “median log2 fold change” value was 0.246.
For B22, the “median log2 fold change” value was -0.41.
For B23, the “median log2 fold change” value was -0.252.
In the case of B24, the “median log2 fold change” value is reported as -0.217.
B25 was tested, and the “median log2 fold change” value was -0.0164.
B26 was tested, and the “median log2 fold change” value was 0.287.
B27 was tested, and the “median log2 fold change” value was 0.0933.
For B28, the “median log2 fold change” value was 0.293.
For B29, the “median log2 fold change” value was 0.184.
